# Experimental data reported in the supplement of paper PMC10037445.
# Over roughly 2,900 compounds, “NF-kB SEAP reporter activity, fold change vs agonist alone” has its median near 0.99; the highest 2% begin near 2.6. Some of the results follow.
# Legend:
# RAW-Dual [1] = assay: NF-kB SEAP reporter activity, fold change vs agonist alone; cytotoxicity flag (confluency mask): not cytotoxic; higher = enhanced NF-kB activity
# Outline: (§1)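 After 50 nL of library stock was delivered by pin tool to RAW-Dual macrophages (50,000 cells/well, DMEM, 384-well plates), a PRR agonist was added 1 h later and the plates were kept at 37 °C, 5% CO2. Twenty hours later, IRF was read from supernatant by QuantiLuc luminescence and NF-κB by QuantiBlue absorbance at 620 nm. Reporter activity is stated as fold change over agonist-alone wells. Wells with IncuCyte confluency under 70% of agonist controls in both mask sets were counted as cytotoxic.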
# RAW-Dual [2] = assay: NF-kB SEAP reporter activity, fold change vs agonist alone; higher = enhanced NF-kB activity
# Outline: as §1
# RAW-Dual [3] = assay: NF-kB SEAP reporter activity, fold change vs agonist alone; cytotoxicity flag (confluency mask): cytotoxic (confluency <70% of control); higher = enhanced NF-kB activity
# Outline: as §1
# [4] = agonist: ODN 1826 (TLR9) 0.5 ug/mL
# [5] = agonist: Pam2CSK4 (TLR2/6) 0.1 ug/mL
# [6] = agonist: Pam3CSK4 (TLR2/1) 0.1 ug/mL
# [7] = library stock concentration (final ~1000-fold dilution): 10 mM, cytotoxicity flag (confluency mask): not cytotoxic, agonist: Imiquimod (TLR7) […]
# [8] = library stock concentration (final ~1000-fold dilution): 10 mM, cytotoxicity flag (confluency mask): not cytotoxic, agonist: MPLA (TLR4) […]
# [9] = library stock concentration (final ~1000-fold dilution): 10 mM, cytotoxicity flag (confluency mask): cytotoxic (confluency <70% of control), agonist: Imiquimod (TLR7) […]
# [10] = library stock concentration (final ~1000-fold dilution): 10 mM, cytotoxicity flag (confluency mask): cytotoxic (confluency <70% of control), agonist: MPLA (TLR4) […]
structure (smiles),measurement,setting,value
Cn1cc(-c2ccc3nnc(C(F)(F)c4ccc5ncccc5c4)n3n2)cn1 (library stock concentration (final ~1000-fold dilution): 10 mM),NF-kB SEAP reporter activity,RAW-Dual [1]; agonist: LPS (TLR4) 0.1 ug/mL,0.887
same,NF-kB SEAP reporter activity,RAW-Dual [1]; [4],1.06
same,NF-kB SEAP reporter activity,RAW-Dual [1]; [5],0.93
same,NF-kB SEAP reporter activity,RAW-Dual [1]; [6],1.08
Cn1cc(-c2ccc3nnc(C(F)(F)c4ccc5ncccc5c4)n3n2)cn1,NF-kB SEAP reporter activity,RAW-Dual [2]; [7],0.862
same,NF-kB SEAP reporter activity,RAW-Dual [2]; [8],0.902
c1ccc2[nH]c(-c3cscn3)nc2c1,NF-kB SEAP reporter activity,RAW-Dual [2]; [7],0.818
same,NF-kB SEAP reporter activity,RAW-Dual [2]; [8],0.832
c1ccc2[nH]c(-c3cscn3)nc2c1 (library stock concentration (final ~1000-fold dilution): 10 mM),NF-kB SEAP reporter activity,RAW-Dual [1]; agonist: LPS (TLR4) 0.1 ug/mL,1.09
same,NF-kB SEAP reporter activity,RAW-Dual [1]; [4],0.886
same,NF-kB SEAP reporter activity,RAW-Dual [1]; [5],0.984
same,NF-kB SEAP reporter activity,RAW-Dual [1]; [6],0.968
Cl.Nc1ccn(C2OC(CO)C(O)C2(F)F)c(=O)n1 (stereo not drawn) (library stock concentration (final ~1000-fold dilution): 10 mM water),NF-kB SEAP reporter activity,RAW-Dual [3]; agonist: LPS (TLR4) 0.1 ug/mL,0.979
same,NF-kB SEAP reporter activity,RAW-Dual [3]; [4],1.56
same,NF-kB SEAP reporter activity,RAW-Dual [3]; [5],0.996
same,NF-kB SEAP reporter activity,RAW-Dual [3]; [6],0.954
Cl.Nc1ccn(C2OC(CO)C(O)C2(F)F)c(=O)n1 (stereo not drawn),NF-kB SEAP reporter activity,"RAW-Dual [2]; library stock concentration (final ~1000-fold dilution): 10 mM water, cytotoxicity flag (confluency mask): cytotoxic (confluency <70% of control), agonist: Imiquimod (TLR7) […]",1.47
same,NF-kB SEAP reporter activity,"RAW-Dual [2]; library stock concentration (final ~1000-fold dilution): 10 mM water, cytotoxicity flag (confluency mask): cytotoxic (confluency <70% of control), agonist: MPLA (TLR4) […]",1.18
CC(NC(CCc1ccccc1)C(=O)O)C(=O)N1CCCC1C(=O)O.O.O (stereo not drawn) (library stock concentration (final ~1000-fold dilution): 10 mM),NF-kB SEAP reporter activity,RAW-Dual [1]; agonist: LPS (TLR4) 0.1 ug/mL,0.977
same,NF-kB SEAP reporter activity,RAW-Dual [1]; [4],1.07
same,NF-kB SEAP reporter activity,RAW-Dual [1]; [5],1.14
same,NF-kB SEAP reporter activity,RAW-Dual [1]; [6],1.09
CC(NC(CCc1ccccc1)C(=O)O)C(=O)N1CCCC1C(=O)O.O.O (stereo not drawn),NF-kB SEAP reporter activity,RAW-Dual [2]; [7],0.942
same,NF-kB SEAP reporter activity,RAW-Dual [2]; [8],1.12
CCC(CC)CC1(C(=O)Nc2ccccc2SC(=O)C(C)C)CCCCC1 (library stock concentration (final ~1000-fold dilution): 10 mM),NF-kB SEAP reporter activity,RAW-Dual [1]; agonist: LPS (TLR4) 0.1 ug/mL,1.13
same,NF-kB SEAP reporter activity,RAW-Dual [1]; [4],0.44
same,NF-kB SEAP reporter activity,RAW-Dual [1]; [5],0.639
same,NF-kB SEAP reporter activity,RAW-Dual [1]; [6],0.657
CCC(CC)CC1(C(=O)Nc2ccccc2SC(=O)C(C)C)CCCCC1,NF-kB SEAP reporter activity,RAW-Dual [2]; [7],0.779
same,NF-kB SEAP reporter activity,RAW-Dual [2]; [8],0.959
O=C(N/N=C/c1c(O)ccc2ccccc12)c1ccncc1 (library stock concentration (final ~1000-fold dilution): 10 mM),NF-kB SEAP reporter activity,RAW-Dual [1]; agonist: LPS (TLR4) 0.1 ug/mL,2.18
same,NF-kB SEAP reporter activity,RAW-Dual [1]; [4],2
same,NF-kB SEAP reporter activity,RAW-Dual [1]; [5],1.15
same,NF-kB SEAP reporter activity,RAW-Dual [1]; [6],1.92
O=C(N/N=C/c1c(O)ccc2ccccc12)c1ccncc1,NF-kB SEAP reporter activity,RAW-Dual [2]; [7],2.57
same,NF-kB SEAP reporter activity,RAW-Dual [2]; [8],1.75
CNC1CN(c2ccc3c(=O)c(C(=O)O)cn(-c4nccs4)c3n2)CC1OC.Cl (stereo not drawn),NF-kB SEAP reporter activity,"RAW-Dual [2]; library stock concentration (final ~1000-fold dilution): 2 mM, cytotoxicity flag (confluency mask): not cytotoxic, agonist: Imiquimod (TLR7) […]",1.12
same,NF-kB SEAP reporter activity,"RAW-Dual [2]; library stock concentration (final ~1000-fold dilution): 2 mM, cytotoxicity flag (confluency mask): not cytotoxic, agonist: MPLA (TLR4) […]",0.968
CNC1CN(c2ccc3c(=O)c(C(=O)O)cn(-c4nccs4)c3n2)CC1OC.Cl (stereo not drawn) (library stock concentration (final ~1000-fold dilution): 2 mM),NF-kB SEAP reporter activity,RAW-Dual [1]; agonist: LPS (TLR4) 0.1 ug/mL,1.11
same,NF-kB SEAP reporter activity,RAW-Dual [1]; [4],1.56
same,NF-kB SEAP reporter activity,RAW-Dual [1]; [5],1.32
same,NF-kB SEAP reporter activity,RAW-Dual [1]; [6],1.18
COc1cc(OCc2cccc(-c3ccccc3)c2C)cc(OC)c1CN1CCCCC1C(=O)O (stereo not drawn) (library stock concentration (final ~1000-fold dilution): 10 mM),NF-kB SEAP reporter activity,RAW-Dual [3]; agonist: LPS (TLR4) 0.1 ug/mL,1.21
same,NF-kB SEAP reporter activity,RAW-Dual [3]; [4],0.794
same,NF-kB SEAP reporter activity,RAW-Dual [3]; [5],1.03
same,NF-kB SEAP reporter activity,RAW-Dual [3]; [6],1.17
COc1cc(OCc2cccc(-c3ccccc3)c2C)cc(OC)c1CN1CCCCC1C(=O)O (stereo not drawn),NF-kB SEAP reporter activity,RAW-Dual [2]; [9],1.22
same,NF-kB SEAP reporter activity,RAW-Dual [2]; [10],1.03
Cl.O=C1c2cccc3c2C(CCC3)CN1C1CN2CCC1CC2 (stereo not drawn) (library stock concentration (final ~1000-fold dilution): 10 mM water),NF-kB SEAP reporter activity,RAW-Dual [1]; agonist: LPS (TLR4) 0.1 ug/mL,0.985
same,NF-kB SEAP reporter activity,RAW-Dual [1]; [4],0.593
same,NF-kB SEAP reporter activity,RAW-Dual [1]; [5],0.966
same,NF-kB SEAP reporter activity,RAW-Dual [1]; [6],0.917
Cl.O=C1c2cccc3c2C(CCC3)CN1C1CN2CCC1CC2 (stereo not drawn),NF-kB SEAP reporter activity,"RAW-Dual [2]; library stock concentration (final ~1000-fold dilution): 10 mM water, cytotoxicity flag (confluency mask): not cytotoxic, agonist: Imiquimod (TLR7) […]",0.577
same,NF-kB SEAP reporter activity,"RAW-Dual [2]; library stock concentration (final ~1000-fold dilution): 10 mM water, cytotoxicity flag (confluency mask): not cytotoxic, agonist: MPLA (TLR4) […]",0.711
C=CC(=O)Nc1cc(N2CCN(CC)CC2)ccc1Nc1cc(N(C)C(=O)Nc2c(Cl)c(OC)cc(OC)c2Cl)ncn1,NF-kB SEAP reporter activity,RAW-Dual [2]; [7],0.877
same,NF-kB SEAP reporter activity,RAW-Dual [2]; [8],0.695
C=CC(=O)Nc1cc(N2CCN(CC)CC2)ccc1Nc1cc(N(C)C(=O)Nc2c(Cl)c(OC)cc(OC)c2Cl)ncn1 (library stock concentration (final ~1000-fold dilution): 10 mM),NF-kB SEAP reporter activity,RAW-Dual [1]; agonist: LPS (TLR4) 0.1 ug/mL,0.513
same,NF-kB SEAP reporter activity,RAW-Dual [1]; [4],0.186
same,NF-kB SEAP reporter activity,RAW-Dual [1]; [5],0.526
same,NF-kB SEAP reporter activity,RAW-Dual [1]; [6],0.517
COc1ccc(C2CC(=O)c3c(O)cc(O)cc3O2)cc1O (stereo not drawn),NF-kB SEAP reporter activity,RAW-Dual [2]; [7],1.28
same,NF-kB SEAP reporter activity,RAW-Dual [2]; [8],1.11
COc1ccc(C2CC(=O)c3c(O)cc(O)cc3O2)cc1O (stereo not drawn) (library stock concentration (final ~1000-fold dilution): 10 mM),NF-kB SEAP reporter activity,RAW-Dual [1]; agonist: LPS (TLR4) 0.1 ug/mL,1.12
same,NF-kB SEAP reporter activity,RAW-Dual [1]; [4],1.2
same,NF-kB SEAP reporter activity,RAW-Dual [1]; [5],1.26
same,NF-kB SEAP reporter activity,RAW-Dual [1]; [6],1.33
CN1CCC(COc2cnc(-c3cccc(Cn4nc(-c5cccc(C#N)c5)ccc4=O)c3)nc2)CC1,NF-kB SEAP reporter activity,RAW-Dual [2]; [7],0.726
same,NF-kB SEAP reporter activity,RAW-Dual [2]; [8],1.3
CN1CCC(COc2cnc(-c3cccc(Cn4nc(-c5cccc(C#N)c5)ccc4=O)c3)nc2)CC1 (library stock concentration (final ~1000-fold dilution): 10 mM),NF-kB SEAP reporter activity,RAW-Dual [1]; agonist: LPS (TLR4) 0.1 ug/mL,2.42
same,NF-kB SEAP reporter activity,RAW-Dual [1]; [4],0.544
same,NF-kB SEAP reporter activity,RAW-Dual [1]; [5],0.955
same,NF-kB SEAP reporter activity,RAW-Dual [1]; [6],1.41
CC(C)c1cc(C(=O)N2Cc3ccc(CN4CCN(C)CC4)cc3C2)c(O)cc1O,NF-kB SEAP reporter activity,RAW-Dual [2]; [9],0.284
same,NF-kB SEAP reporter activity,RAW-Dual [2]; [10],0.588
CC(C)c1cc(C(=O)N2Cc3ccc(CN4CCN(C)CC4)cc3C2)c(O)cc1O (library stock concentration (final ~1000-fold dilution): 10 mM),NF-kB SEAP reporter activity,RAW-Dual [3]; agonist: LPS (TLR4) 0.1 ug/mL,0.269
same,NF-kB SEAP reporter activity,RAW-Dual [3]; [4],0.183
same,NF-kB SEAP reporter activity,RAW-Dual [3]; [5],0.0845
same,NF-kB SEAP reporter activity,RAW-Dual [3]; [6],0.133
